# Laboratory results published in PubChem BioAssay AID1508624 (National Center for Advancing Translational Sciences (NCATS), 2021).
# The whole screen tested about 48,000 compounds, of which about 120 (0.25%) were called active. Not shown: some 4% with an inconclusive outcome. Calls follow the shape of the dose curve; as a rule, active = well fitted activation curve with a large enough effect; inconclusive = small, poorly fitted or top-dose-only effect, or another doubt; inactive = no such curve, though single readings can be large or run the other way. This is one part of the list.
# Assay: Primary qHTS for Identification of Small Molecule Activators of Huntingtin-Antisense Promoter Activity; also: nearly all actives have a fitted effect of over 55% in size
# Settings: HEK293 HTT-AS promoter firefly luciferase reporter, 24 h; series mostly up to 57.5 µM; activity change, positive = activation: at the top concentration
# Procedure, shortened: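 HEK293 luciferase promoter-reporter cells (2,500/well) plated 24 h, then compounds added at up to 57.5 uM final for 24 h at 37 °C. Firefly luminescence by Dual-Glo, normalized to vehicle (0%) and zero RLU (-100%).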
row,Compound,"activity change, positive = activation"
1,N#Cc1c(C(F)(F)F)cc(-c2cccs2)nc1SCC(=O)Nc1cccc(Cl)c1,inactive: -15.3%
2,Cc1cc(-n2ccnc(NCCc3ccc(S(N)(=O)=O)cc3)c2=O)ccc1Br,inactive: -27.3%
3,COc1ccc(-c2onc(C)c2C)cc1S(=O)(=O)N(C)Cc1ccccc1,inactive: -51.3%
4,COc1ccc(NC(=O)c2ccco2)cc1NC(=O)c1cc(OC)c(OC)c(OC)c1,inactive: 1.94%
5,Cc1ccc(-c2cn3ccc(C)cc3n2)cc1,inactive: -18.4%
6,CC(C)CCn1c(/C=C/c2ccccc2)nc2ccccc21,inactive: 1.2%
7,Cc1cc(C)cc(NC(=O)CSc2nc3nccnc3c(=O)n2CCc2c[nH]c3ccccc23)c1,inactive: -30.1%
8,CCOC(=O)Cn1c(=O)n(C2CCCCC2)c2nc(-c3c(F)cccc3Cl)nc(C(N)=O)c21,inactive: -42.3%
9,Cc1cccc(NC(=O)Cn2c(=O)n(CCCCCC(=O)NCc3ccc4c(c3)OCO4)c(=O)c3sccc32)c1,inactive: -17.6%
10,COC(=O)c1scc(-c2ccc(C)cc2)c1S(=O)(=O)Nc1cc(C)ccc1OC,inactive: -27.8%
11,Cc1ccc(NC(=O)c2cnc3sc(N4CCOCC4)nn3c2=O)cc1N(C)C,inactive: -19.2%
12,COc1ccc(Nc2nc(C)nc(N)c2S(=O)(=O)c2ccccc2)cc1,inactive: -18.9%
13,COc1ccccc1C(=O)Nc1sc(Nc2ccccc2)nc1C(N)=O,inactive: -28.3%
14,O=C(c1ccc2c(c1)N(Cc1ccccc1)C(=O)c1ccccc1S2(=O)=O)N1CCN(Cc2ccccc2)CC1,inactive: -33.2%
15,CC(C)(C)NC(=O)c1oc2ccccc2c1NC(=O)c1ccccc1F,inactive: 3.97%
16,Cc1ccc(S(=O)(=O)Nc2ccc3nc(-c4ccc(F)cc4)oc3c2)cc1,inactive: -19.6%
17,CCC(C)NC(=O)CCC(=O)N1Cc2ccccc2Oc2ncccc21 (stereo not given),inactive: -2.57%
18,CC1=C(C(=O)N2CCN(c3ccccc3)CC2)C2(CCCCC2)OC1=O,inactive: -5.17%
19,COc1cc(NC(=O)Cn2c(=O)ccc3cc(S(=O)(=O)N4CCCC4)ccc32)cc(OC)c1,inactive: -37.9%
20,Cc1ccc(CNC(=O)c2c(C)oc3ncnc(N4CCOCC4)c23)cc1,inactive: -24.3%

row,Compound,"activity change, positive = activation"
1,Cc1ccc(-n2nc(C)c(C(=O)O)c2-n2cccc2)cc1,inactive: -4.26%
2,COc1ccc(/C=C\c2onc(C)c2S(=O)(=O)N2CCC(C(=O)Nc3cccc(OC)c3)CC2)cc1,inactive: -41.8%
3,CCOC(=O)c1c(C)[nH]c(C)c1S(=O)(=O)N(C)CC(=O)Nc1ccc(CC)cc1,inactive: -7.01%
4,CC(C)(C)[C@H](NC(=O)c1ccc(N)c(Cl)c1)C(=O)N1CCC[C@@H]1C(=O)N[C@H](C#N)CC(=O)O,"inactive: -10.4% [at 6 µM, percent change from vehicle, -100% = no light]"
5,CCc1ccc(-n2c(=O)c3c4c(sc3n(CC(=O)c3ccc(Br)cc3)c2=O)CCC4)cc1,inactive: -23.4%
6,Cc1cc(C)c2c(CC(=O)N(Cc3ccc(Cl)cc3)Cc3ccco3)coc2c1,inactive: -37.6%
7,O=C(Nc1ccccc1)c1nc[nH]c1C(=O)O,inactive: -8.93%
8,COc1cc(OC)c(N(C)C(=O)c2c(C)oc3ncn(CC(C)C)c(=O)c23)cc1Cl,inactive: -1.67%
9,Cc1c(-c2ccccc2)nc2c(Cl)cccc2c1C(=O)OCC(=O)c1ccc(F)cc1,inactive: 21.3%
10,CCOC(=O)CSc1nc2cc3c(cc2c(=O)n1Cc1ccc(C(=O)NCCc2ccc(OC)c(OC)c2)cc1)OCO3,inactive: -4.86%
11,Cc1ccc(NC(=O)Cn2cc(S(=O)(=O)Cc3ccc(F)cc3)c3ccccc32)cc1Cl,inactive: -48%
12,CCOc1ccccc1C(=O)N(Cc1sccc1C)C1CCS(=O)(=O)C1 (stereo not given),inactive: -9.69%
13,COc1ccc(-c2cc(C(F)(F)F)nc(SCC(=O)NCCc3ccccc3)n2)cc1,inactive: -9.04%
14,N#Cc1c(-n2ncnc2-c2ccc(F)cc2)sc2c1CCCCC2,inactive: -61.7%
15,O=C(CSCc1cnn(-c2ccccc2)c1-n1cccc1)NCc1cccc(Cl)c1,inactive: -40.3%
16,CCCSc1ncc(Cl)c(C(=O)Nc2sc3c(c2C(=O)OC)CCCC3)n1,inactive: -9.01%
17,O=C(C1CCN(S(=O)(=O)c2ccc(Br)s2)CC1)N1CCN(c2cccc(C(F)(F)F)c2)CC1,inactive: -41.1%
18,CSc1ccc(CCNC(=O)c2ccc3c(Cl)c4c(nc3c2)CCCC4)cc1,inactive: -38.9%
19,CCCSc1ncc(Cl)c(C(=O)Nc2nc3ccc(C)cc3s2)n1,inactive: -7.55%
20,COc1ccc(S(=O)(=O)Nc2cc(-c3c(O)ccc4ccccc34)c(O)c3ccccc23)cc1,inactive: -15.3%

row,Compound,"activity change, positive = activation"
1,CCc1ccccc1NC(=O)Cn1nc(C(F)(F)F)c2c1CCC2,inactive: -13.1%
2,Cc1cc(C)c2c(CC(=O)Nc3ccccc3C(F)(F)F)coc2c1,inactive: -4.07%
3,COc1ccc(S(=O)(=O)c2c(O)c3ccc(C(=O)Nc4ccccc4)cc3[nH]c2=O)cc1,inactive: -25.1%
4,Cc1cccc(NC(=O)C2CCN(c3nnc(C)c4c(C)n(-c5ccccc5)nc34)CC2)c1C,inactive: -5.46%
5,Cc1ccc(Cl)cc1NC(=O)C1CCCN(c2cnccn2)C1 (stereo not given),inactive: 5.83%
6,O=C(NCc1ccccc1)C(=O)NCC(c1ccco1)S(=O)(=O)c1cccs1 (stereo not given),inactive: -4.1%
7,CCc1nn(CC(=O)Nc2cccc(C(C)=O)c2)c(=O)c2cc3sccc3n12,inactive: -26.5%
8,CCS(=O)(=O)c1ncc(Cl)c(C(=O)NCc2ccc(OC)cc2)n1,inactive: -93.7%
9,CN(C)c1ccc(C(CNS(=O)(=O)c2ccc(Cl)cc2)N2CCOCC2)cc1 (stereo not given),inactive: -21.8%
10,CCOC(=O)c1ccccc1NC(=O)Cn1c(=O)n(Cc2nc(C)no2)c(=O)c2ccccc21,inactive: -20.4%
11,CN(c1ccccc1C(=O)O)S(=O)(=O)c1ccc2[nH]c(=O)oc2c1,inactive: -9.43%
12,O=C(CCn1c(=O)c2ccccc2n(Cc2cccc(Cl)c2)c1=O)NCCc1ccccc1,inactive: -10.6%
13,Cc1cccc(C)c1NC(=O)Cn1nnc(C(=O)NCc2ccc(F)cc2)c1N,inactive: 5.35%
14,Cc1ccccc1CCNC(=O)C1CCN(S(=O)(=O)c2ccc3c(ccn3C)c2)CC1,inactive: -9.82%
15,O=C(NCC1(c2ccccc2)CCCC1)C(=O)Nc1cccc(Br)c1,inactive: -4.46%
16,Cn1c(=O)c2c(nc(Oc3ccccc3Cl)n2Cc2ccc(C#N)cc2)n(C)c1=O,inactive: -11.7%
17,COc1cc(Nc2ncc3c(n2)CCN(Cc2cccc(C)c2)C3)cc(OC)c1,inactive: -20.1%
18,Cn1nnnc1SCCCNCc1cccc(OCc2ccc(F)cc2)c1,inactive: -23.1%
19,Cc1oc2c(C)c3oc(=O)c(CC(=O)N4CCCCC4)c(C)c3cc2c1C,inactive: -8.78%
20,CCc1nn(C(C)C(=O)N2CCN(c3ccccc3)CC2)c(=O)c2cc3occc3n12 (stereo not given),inactive: -30.6%
